Measured values reported in PMC4336329 (PLoS ONE, 2015).
About 2,200 (0.71%) of roughly 310,000 compounds showed an effect of 50% or more. The effect is printed as a negative number. The list shows a part of the results.

The compounds below were run against human ether-à-go-go-related gene (hERG) potassium channel (human, UniProt Q12809) (assay: primary screen, population patch clamp on CHO cells stably expressing hERG).
Sequence of human ether-à-go-go-related gene (hERG) potassium channel (Q12809 whole entry, looked up): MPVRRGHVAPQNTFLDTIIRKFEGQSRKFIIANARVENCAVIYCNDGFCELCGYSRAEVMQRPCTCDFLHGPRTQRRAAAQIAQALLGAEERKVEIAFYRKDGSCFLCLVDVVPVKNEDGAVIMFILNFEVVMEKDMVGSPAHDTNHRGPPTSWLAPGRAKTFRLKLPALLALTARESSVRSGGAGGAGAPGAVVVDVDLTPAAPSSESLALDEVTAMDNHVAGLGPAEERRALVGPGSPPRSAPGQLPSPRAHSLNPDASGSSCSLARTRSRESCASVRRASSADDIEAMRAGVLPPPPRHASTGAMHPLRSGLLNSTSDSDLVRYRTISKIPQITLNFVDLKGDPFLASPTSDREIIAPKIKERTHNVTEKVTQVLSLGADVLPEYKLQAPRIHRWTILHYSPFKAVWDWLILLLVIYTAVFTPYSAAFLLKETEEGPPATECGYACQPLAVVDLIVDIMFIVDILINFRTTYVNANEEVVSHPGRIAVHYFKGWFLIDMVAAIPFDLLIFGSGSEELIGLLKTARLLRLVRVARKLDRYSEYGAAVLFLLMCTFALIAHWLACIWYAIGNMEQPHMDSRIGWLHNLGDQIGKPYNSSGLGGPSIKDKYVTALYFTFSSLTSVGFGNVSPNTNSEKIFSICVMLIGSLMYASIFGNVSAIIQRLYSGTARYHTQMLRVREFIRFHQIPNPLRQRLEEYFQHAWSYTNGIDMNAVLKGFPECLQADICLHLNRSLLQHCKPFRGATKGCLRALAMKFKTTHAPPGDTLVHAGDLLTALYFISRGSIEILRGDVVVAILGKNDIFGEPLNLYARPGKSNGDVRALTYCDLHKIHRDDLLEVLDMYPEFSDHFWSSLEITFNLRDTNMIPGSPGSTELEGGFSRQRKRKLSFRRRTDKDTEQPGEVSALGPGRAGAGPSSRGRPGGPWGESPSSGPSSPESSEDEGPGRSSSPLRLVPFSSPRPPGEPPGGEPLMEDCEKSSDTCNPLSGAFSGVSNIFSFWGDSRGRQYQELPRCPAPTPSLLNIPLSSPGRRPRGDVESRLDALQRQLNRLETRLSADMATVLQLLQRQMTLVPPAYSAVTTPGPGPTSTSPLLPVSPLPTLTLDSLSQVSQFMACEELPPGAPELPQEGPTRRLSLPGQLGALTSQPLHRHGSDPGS

| Compound | hERG current change (%, negative = inhibition) at 1uM [%] |
| --- | --- |
| Cc1cccc(NC(=O)CSc2nc3ccccc3nc2N2CCCC2)c1C | 6.74 |
| O=C(NCC1CCCO1)c1ccc(Cn2c(=S)[nH]c3ccccc3c2=O)cc1 (stereo not shown) | 8.27 |
| CC1CCc2nn(CC(=O)N3CCN(C(=O)c4ccco4)CC3)cc2C1 (stereo not shown) | 1.15 |
| COc1ccc(OC)c(C2C(C(=O)c3ccco3)=C(O)C(=O)N2Cc2cccnc2)c1 (stereo not shown) | 15 |
| CCOc1cc2c(cc1OCC)-n1cccc1C(c1ccccc1OC)NC2.Cl (stereo not shown) | 21.9 |
| N#CCCNC(=O)CCN1CCOCC1 | 13.5 |
| COc1ccc(CN2CCN(Cc3ccccc3)C(CCO)C2)cc1OC (stereo not shown) | 6.76 |
| COc1ccc(N(CC(=O)N2CCN(Cc3ccccc3)CC2)S(C)(=O)=O)cc1Cl | 14 |
| CCOC(=O)C1CCCN(C(=O)CN2C(=O)NC(C)(c3ccc4ccccc4c3)C2=O)C1 (stereo not shown) | 6.69 |
| CCN(CC(=O)Nc1c(F)cccc1F)C(=O)c1ccccc1F | 16.3 |
| O=C(C1CC1)N1CCN(c2ccc(O)cc2)CC1 | 2.84 |
| CCN(CC)S(=O)(=O)c1ccc(N2CCCC2)c(NC(=O)c2ccc(OC)cc2OC)c1 | -3.3 |
| COc1ccc(C(NC(=O)c2ccccc2F)NC(=O)c2ccccc2F)cc1 | 9.66 |
| COc1ccccc1C(=O)COC(=O)CN1C(=O)c2ccccc2C1=O | 16.2 |
| COc1ccc(C)cc1NC(=O)CN(c1ccc(C)cc1)S(C)(=O)=O | 0.905 |
| Cc1ccc(S(=O)(=O)Nc2cc(S(=O)(=O)N3CCCCC3)ccc2N2CCOCC2)cc1 | 18.5 |
| CCOc1ccccc1N1CC(C(=O)Nc2cccc(S(=O)(=O)N3CCCCC3)c2)CC1=O (stereo not shown) | 4.86 |
| CCOCCCNC(=O)/C(C#N)=C/c1ccccc1F | 7.31 |
| C/C(=N\NC(=O)C1CCCN(S(=O)(=O)c2ccccc2)C1)c1ccccn1 (stereo not shown) | 7.2 |
| COc1ccc(CN2CCN(C(c3ccc(F)cc3)c3ccc(F)cc3)CC2)c(OC)c1OC.Cl | 6.28 |
| CCOc1ccc(N=C2Sc3nc4ccc(C)cc4cc3CN2CCOC)cc1 | 16.5 |
| CCCNC(=O)c1ccc(N2CCC3(CC2)CC(c2cccc(Br)c2)=NO3)c(NC(=O)c2c(Cl)cccc2Cl)c1 | 1.79 |

| Compound | hERG current change (%, negative = inhibition) at 1uM [%] |
| --- | --- |
| CCOc1ccc(-c2nnc3ccc(SCC(=O)Nc4nc5ccccc5s4)nn23)cc1 | 4.4 |
| CC(=O)Nc1ccc(N2C(=O)CSC2c2c(F)cccc2Cl)cc1 (stereo not shown) | 3.41 |
| CN(C(=O)c1ccc2c(c1)OCO2)C1CCS(=O)(=O)C1 (stereo not shown) | 5.94 |
| CCc1ccc(OCC(O)CN2CCC(CN3C(=O)c4cccc5cccc(c45)C3=O)CC2)cc1.Cl (stereo not shown) | 13.9 |
| CC1=C(C(=O)OCC(C)C)C(c2ccc(F)cc2)NC(=O)N1 (stereo not shown) | 10.6 |
| C=CCOc1ccc(/C=C2\C(=N)N3N=C(S(=O)(=O)CC)SC3=NC2=O)cc1OC | 6.64 |
| Cc1cccc(-n2ncc3c(NCc4ccco4)ncnc32)c1 | -0.273 |
| CC/C(=N\NC(=O)C1CCCC1)c1ccc(Br)cc1 | 11 |
| CN(Cc1ccccc1)C(=O)CCC1CCN(S(C)(=O)=O)CC1 | 7.49 |
| COc1cccc(-c2[nH]nc3c2C(c2ccoc2)C(C#N)=C(N)O3)c1 (stereo not shown) | 4.73 |
| CC(=O)N1c2ccc(S(=O)(=O)NCCc3ccccc3)cc2CC1C (stereo not shown) | 8.21 |
| COc1ccccc1NC(=O)N(c1c(N)n(Cc2ccccc2)c(=O)[nH]c1=O)C1CCCC1 | 0.722 |
| O=C(NC1CCSC1=O)c1ccc(Cl)cc1 (stereo not shown) | 0.7 |
| COc1ccc(C(CNC(=O)C(C)Oc2ccc(Br)cc2)N2CCOCC2)cc1 (stereo not shown) | 3.79 |
| COC(=O)c1c(C)nc2ccccc2c1-c1ccccc1 | -3.15 |
| CCN(CCn1cccn1)C(=O)CC1C(=O)NCCN1Cc1ccc(F)cc1 (stereo not shown) | 6.34 |
| CC(C)CC(=O)NC(=S)Nc1ccccc1C(F)(F)F | 0.73 |
| CCOC(=O)CSCC(=O)N1N=C(c2cccs2)CC1c1ccc(F)cc1 (stereo not shown) | 6.12 |
| CC1CCC/C(=N\NC(=O)Nc2ccccc2)C1 (stereo not shown) | -1.92 |
| O=C(CCCCCCC(=O)c1ccccc1)c1ccccc1 | 10.2 |
| CC(C)C1C(=O)NC(=S)N1S(=O)(=O)c1ccc(C(C)(C)C)cc1 (stereo not shown) | 9.35 |
| COc1cc(N)c(Cl)cc1C(=O)OCC(=O)c1cccs1 | 18.7 |

| Compound | hERG current change (%, negative = inhibition) at 1uM [%] |
| --- | --- |
| CCn1nccc1C(=O)Nc1ccc(C(=O)OC(C)C)cc1 | 13.9 |
| CCOC(=O)C[C@H]1c2ccc(C(F)(F)F)cc2S(=O)(=O)N1C1CCCC1 | 8.64 |
| COc1ccc(C2=NOC3(CC(=O)N(c4ccc(C)cc4)C3=O)C2)cc1 (stereo not shown) | 5.51 |
| Cc1nc(NCc2ccccc2)sc1C(=O)Nc1ccccc1 | 13.8 |
| O=C(N[C@@H](Cc1ccccc1)C(=O)OCc1ccccc1)c1nc[nH]c1C(=O)NCc1ccccc1 | 0.398 |
| COc1cccc(C2=NOC(C(=O)Nc3cccc(C(C)=O)c3)C2)c1 (stereo not shown) | -13.8 |
| O=C(N/N=C/c1ccc(O)c([N+](=O)[O-])c1)C(O)(c1ccccc1)c1ccccc1 | 17.5 |
| O=S(=O)(NC1CCCCC1N1CCC(O)CC1)c1ccc(Cl)cc1 (stereo not shown) | 5.39 |
| COC(=O)CSc1nc(N)c2c3c(sc2n1)CCCC3 | -0.221 |
| C=CCCCCCCCC(=O)OC | 16 |
| CCOc1ccccc1OCCCOc1ccc(C)cc1Br | 7.8 |
| CC(C)COc1ccc(C2(C#N)CC[N+](C)(C)CC2)cc1.[Br-] | 9.21 |
| O=C(Nc1ccncc1)c1ccc(C(=O)Nc2ccncc2)cc1 | 2.85 |
| Cc1sc2ncn(CC(=O)NCCCN3CCC(C)CC3)c(=O)c2c1S(=O)(=O)N1CCC(C)CC1 | 16.9 |
| Cc1cccc(C)c1OCC(=O)Nc1ccc(S(=O)(=O)Nc2ccccn2)cc1 | 3.35 |
| CN(C)CCCN(C(=O)c1ccco1)c1nc2ccc(Br)cc2s1.Cl | -33 |
| CCc1sc(NC(=O)C(C)C)nc1-c1ccccc1 | -0.0628 |
| COc1ccc(C(=O)/C=C/c2cn(CC(O)CN3CCN(C)CC3)c3ccccc23)cc1OC (stereo not shown) | 5.59 |
| CCN1CCN(CCCNC(=O)CNC(=O)c2nn(-c3ccc(OC)cc3OC)c(=O)c3ccccc23)CC1 | 1.82 |
| O=C(COc1ccc(S(=O)(=O)N2CCCCC2)cc1)N1CCN(Cc2ccccc2)CC1 | 2.21 |
| Cc1n[nH]c(=S)n1/N=C/c1c(O)ccc2ccccc12 | 21.6 |
| COC(=O)c1ccc(Oc2nc(C(N)=O)cc(-c3ccccc3)n2)cc1 | 18.2 |

| Compound | hERG current change (%, negative = inhibition) at 1uM [%] |
| --- | --- |
| CCC/C(=N\NC(=O)CNC(=O)/C=C/c1ccco1)c1ccccc1 | -0.435 |
| CCC1(C)Cc2c(sc3[nH]c(=S)n(Cc4ccccc4)c(=O)c23)CO1 (stereo not shown) | 11 |
| COc1ccc(-n2ncc3c2CC(C)(C)CC3NC(=O)CCc2c(C)nn(C)c2C)cc1 (stereo not shown) | 5.99 |
| CCCOc1ccc(C(=O)NNC(=S)NC(=O)c2cccs2)cc1 | 21.1 |
| CNC(=S)Nc1cc(OC)c(NC(=O)c2ccco2)cc1OC | 18.8 |
| CCOC(=O)c1nn(-c2cccc(C)c2)c2nc(-c3ccccc3)c(C#N)c(=O)n12 | -2.43 |
| CCOC(=O)c1cnc2c(C#N)cnn2c1N | 18.5 |
| CC1C(=O)Nc2ccccc2N1C(=O)c1cccc(C(F)(F)F)c1 (stereo not shown) | 6.13 |
| COc1ccc(Cn2c(SCc3ccccc3C)nc3cc(OC)c(OC)cc3c2=N)cc1 | 5.34 |
| C/C(=N\OCC(=O)O)c1ccc(Cl)cc1 | 11.8 |
| C=C1C(=O)O[C@@H]2C[C@@H](C)[C@H]3C=CC(=O)[C@]3(O)C[C@@H]12 | 12.6 |
| Cc1csc(NC(=O)CSc2nnc(-c3ccc(Cl)cc3)n2N)n1 | -4.27 |
| Cc1noc(C)c1S(=O)(=O)N1CCCC(C(=O)NCc2ccccn2)C1 (stereo not shown) | 6.3 |
| CC(=O)N(C1=C(Cl)C(=O)c2ccccc2C1=O)c1ccc(C(=O)O)cc1 | 11.1 |
| Cc1cc(C)n2nc(SCCOc3ccccc3)nc2n1 | 1.37 |
| CCOC(=O)NC(O)C(=O)c1cccs1 (stereo not shown) | 11.7 |
| COc1ccccc1C(=O)NNC(=O)C(=O)Nc1cccc(Cl)c1C | 14.9 |
| COc1ccc(C(=O)NC2CCN(C(=S)NCCc3ccccc3)CC2)cc1 | 11.4 |
| CC(C)Cc1c2c([nH]c(=S)c1C#N)CCCC2 | 15.4 |
| COc1ccc(NC(=O)c2ccc(COc3ccccc3Br)o2)c(OC)c1 | 11.1 |
| C=CCNC(=O)C1CCN(S(=O)(=O)CC)CC1 | 1.84 |
| Cc1ccc(CSC2=NCCN2S(=O)(=O)c2ccc(F)cc2)cc1 | 9.99 |
